The values below come from PMC4336329 (PLoS ONE, 2015).

Screen size: about 310,000 compounds; about 14,000 (4.5%) showed an effect of 50% or more. Effects have a minus sign here. Some of the results follow.
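Note: peak tail current of the secondary pulse compared with the same well before compound.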

Sequence of human ether-à-go-go-related gene (hERG) potassium channel (Q12809 whole entry, looked up): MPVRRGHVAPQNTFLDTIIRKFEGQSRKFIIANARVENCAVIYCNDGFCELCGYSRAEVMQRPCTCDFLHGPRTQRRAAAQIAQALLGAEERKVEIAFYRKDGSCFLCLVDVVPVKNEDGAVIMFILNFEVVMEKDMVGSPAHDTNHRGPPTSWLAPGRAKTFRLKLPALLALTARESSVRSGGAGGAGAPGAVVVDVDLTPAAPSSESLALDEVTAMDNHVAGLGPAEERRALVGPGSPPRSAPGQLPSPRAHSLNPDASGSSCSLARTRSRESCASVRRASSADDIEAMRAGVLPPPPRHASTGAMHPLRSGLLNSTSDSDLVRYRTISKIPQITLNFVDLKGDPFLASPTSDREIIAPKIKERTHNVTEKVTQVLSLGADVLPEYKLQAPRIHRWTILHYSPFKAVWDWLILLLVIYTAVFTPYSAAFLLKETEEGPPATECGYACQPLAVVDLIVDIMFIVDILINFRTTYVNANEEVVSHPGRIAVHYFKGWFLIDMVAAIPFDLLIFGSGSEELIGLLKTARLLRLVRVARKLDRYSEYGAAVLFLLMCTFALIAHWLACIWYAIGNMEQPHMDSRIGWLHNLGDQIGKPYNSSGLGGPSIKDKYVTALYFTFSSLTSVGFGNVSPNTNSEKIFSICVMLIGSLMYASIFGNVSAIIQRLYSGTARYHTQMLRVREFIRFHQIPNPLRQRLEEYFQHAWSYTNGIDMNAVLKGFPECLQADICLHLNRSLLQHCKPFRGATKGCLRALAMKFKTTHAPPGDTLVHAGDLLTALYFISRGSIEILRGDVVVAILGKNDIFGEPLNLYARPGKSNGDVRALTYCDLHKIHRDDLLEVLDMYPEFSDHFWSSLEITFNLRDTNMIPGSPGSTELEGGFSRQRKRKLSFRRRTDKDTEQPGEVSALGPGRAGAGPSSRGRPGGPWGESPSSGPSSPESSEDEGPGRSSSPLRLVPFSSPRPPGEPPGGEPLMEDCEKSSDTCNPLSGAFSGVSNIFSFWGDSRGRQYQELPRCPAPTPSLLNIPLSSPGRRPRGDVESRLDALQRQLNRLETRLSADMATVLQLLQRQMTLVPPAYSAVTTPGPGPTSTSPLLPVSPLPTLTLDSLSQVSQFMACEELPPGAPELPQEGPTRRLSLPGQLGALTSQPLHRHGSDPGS

This assay concerns the target human ether-à-go-go-related gene (hERG) potassium channel (human, UniProt Q12809). Kind of assay: primary screen, population patch clamp on CHO cells stably expressing hERG.
With `COc1cccc(C(c2sc3nc(C)nn3c2O)N2CCc3ccccc3C2)c1` (centres unmarked), the “hERG current change (%, negative = inhibition) at 10uM” value was -25%.
Next, `CN1CCN(Cc2nc(Cc3cccc(F)c3)no2)CC1c1ccccc1` (centres unmarked): -18.2%.
`COc1ccc(/C=C2/C(=O)N=C3SCCN32)cc1`: the “hERG current change (%, negative = inhibition) at 10uM” value was -19.7%.
Next, `Cc1ccc(C2C3=C(CCCC3=O)Nc3nc(SCC(=O)NCc4ccco4)[nH]c(=O)c32)cc1` (centres unmarked): -12.4%; `Cc1ccc(OCC(=O)Nc2cc(C(C)(C)C)on2)cc1C`: 6.23%.
Next, `CN(Cc1ccccc1)S(=O)(=O)c1ccc(NS(=O)(=O)Cc2ccccc2)cc1`: 0.139%.
As for `COc1ccc(-c2csc(NC(C)c3nc4cc(Cl)c(N5CCCCC5)cc4n3CCOCCO)n2)cc1` (centres unmarked), the figure is 12.9%.
Regarding `CCOC(=O)c1sc2nc(C(C)C)c3c(c2c1N)CC(C)(C)OC3`, the “hERG current change (%, negative = inhibition) at 10uM” value is 5.05%.
As to `OC(CNCC1CCCO1)COc1ccc(OCC(O)CNCC2CCCO2)cc1` (centres unmarked), the “hERG current change (%, negative = inhibition) at 10uM” value was 8.24%.
Next, `CC(Oc1ccc(Cl)cc1Cl)C(=O)Nc1ccc(O)cc1` (centres unmarked): -46.7%; `COc1cccc(N2CCN(C(=O)CCS(=O)(=O)c3ccc4c(c3)oc(=O)n4C)CC2)c1`: -3.62%.
Next, `O=C(NNC(=O)C1CC1)c1ccc(-c2ccccc2)cc1`: -0.895%; `Cn1c(=O)c2c(nc(CO)n2C)n(C)c1=O`: 25.2%.
As for `Cc1cc(Br)ccc1NC(=O)c1sc2ncnc(N3CCN(c4ccccn4)CC3)c2c1C`, the figure is -28%; as for `O=c1c2c(ncn1CCO)nc1n2CCC1`, 9.55%.
For the molecule `c1ccc2c(-n3cccn3)cccc2c1`, the “hERG current change (%, negative = inhibition) at 10uM” value is -4.01%.
Next, `c1ccc(-c2noc(CSc3nc4ccccc4o3)n2)cc1`: 0.774%; `O=C(NNC(=O)C1CCN(S(=O)(=O)c2ccc(Cl)cc2)CC1)c1ccc(S(=O)(=O)N2CCCCC2)cc1`: 0.37%.
Next, `C=CCc1c(C)nc2cc(-c3ccccc3)[nH]n2c1=O`: 5.05%; `COc1cccc(OCC(=O)NNC(=O)c2cnccn2)c1`: 17.2%; `CC(=O)c1ccc(OCc2cc(C(=O)N3CCN(C4CCCC4)C(=O)C3)no2)cc1`: 1.94%.
As to `Cc1ccc(Cn2c(C)c3cnn(CC(=O)NCc4ccccn4)c(=O)c3c2C)cc1`, the “hERG current change (%, negative = inhibition) at 10uM” value was -26.5%.
As for `NC(=O)C(=O)NN=C1C2CC3CC(C2)CC1C3`, the figure is 12.8%.
For the molecule `COc1cccc(C(=O)Nc2ccc(NC(=O)C3CCCCC3C(=O)O)cc2)c1` (centres unmarked), the “hERG current change (%, negative = inhibition) at 10uM” value amounted to 9.47%.
Next, `COc1ccc(CNS(=O)(=O)NCc2ccc(OC)c(OC)c2)cc1OC`: -1.36%.
Next, `CCc1ccc(NCc2ccc(OC)c(Cn3ccnc3)c2)cc1`: -10.5%; `COc1ccccc1Nc1ncnc2c1cnn2-c1cccc(C)c1`: 6.1%; `COc1cc(Cl)ccc1OCc1cc(C(=O)NCC(C)c2ccccc2)no1` (centres unmarked): 5.93%.
Next, `Cc1ccc(C)c(S(=O)(=O)N2CCN(C(=O)Cn3cnc4c3c(=O)n(C)c(=O)n4C)CC2)c1`: -23.5%; `NC(=O)CN1CCN(c2nc(-c3ccc(F)cc3)cs2)CC1`: -19.9%; `O=[N+]([O-])c1cc([As](=O)(O)O)ccc1O`: 19.8%.
For the molecule `CCOc1ccc(NC(=O)CC2C(=O)N(c3ccccc3)C(=O)N2Cc2ccccn2)cc1` (centres unmarked), the “hERG current change (%, negative = inhibition) at 10uM” value was -27.5%.
Next, `CCOC(=O)N1CCN(C(=O)CN(c2ccc(C)cc2)S(=O)(=O)c2c(C)noc2C)CC1`: -23.8%; `Cc1cc([N+](=O)[O-])ccc1NC(=O)CCC(=O)N1CCCC1`: -1.81%.
Next, `CC(=O)c1c(COC(=O)c2ccco2)nc2ccccc2[n+]1[O-]`: -8.88%; `Cc1ccsc1C(=O)OCC(=O)NCCNC(=O)COC(=O)c1sccc1C`: 15.7%; `COC(=O)c1sccc1NC(=O)Nc1cccc(C)c1`: -20.5%.
On to `COc1ccc(CCNC(=S)Nc2ccccc2)cc1`, for which the “hERG current change (%, negative = inhibition) at 10uM” value is given as -3.62%.
As for `CCOc1ccccc1CNC(=O)C1CCN(c2nnc(C)c3c(C)n(-c4ccc(C)cc4)nc23)CC1`, the figure is -36.4%; as for `C=C(C)Cn1c(CCCNC(=O)C(C)(C)C)nc2ccccc21`, -18%.
Next, `CN(C)S(=O)(=O)c1cccc(NC(=O)c2cc([N+](=O)[O-])ccc2N2CCCCC2)c1`: -53%.
As for `CC(C)(C)NNC(=S)Nc1cccc(C(F)(F)F)c1`, the figure is 12%.
Take `CCCn1c(SCC(=O)NCc2ccc(F)cc2)n[nH]c1=O`: the “hERG current change (%, negative = inhibition) at 10uM” value came to 10%.
Next, `COc1ccc(CC(=O)NNC(=O)c2cc(C)oc2C)cc1OC`: -0.228%.
Next, `O=C(COc1ncnc2sccc12)Nc1cccc(S(=O)(=O)N2CCCC2)c1`: -11.2%.
Next, `COc1ccc(NS(=O)(=O)c2cccc(C(=O)N3CCCC(C)C3)c2)cc1` (centres unmarked): -18.7%; `O=S(=O)(c1ccccc1)N1CCC(O)(CN2CCN(c3ccccc3)CC2)CC1`: 12.2%.
As for `Cc1nn(C(=O)/C(C#N)=C/N(C)C)c(C)c1C`, the “hERG current change (%, negative = inhibition) at 10uM” value was determined as 41.7%.
As for `CCNc1nnc(CSc2nc3ccccc3s2)s1`, the figure is -20.4%; as for `Cc1ccc(OCC(=O)Nc2ccncc2)c(C)c1`, -4.52%.
Next, `O=C(N/N=C/c1ccc(OC(=O)c2ccccc2)cc1)c1cccnc1`: 21.1%; `CCNc1nc(NCC)n2c(SCC(=O)Nc3ccc(C(F)(F)F)cc3[N+](=O)[O-])nnc2n1`: 0.556%.
Regarding `O=C(COC(=O)c1cc(Cl)ccc1O)NNC(=O)c1ccc([N+](=O)[O-])cc1`, the “hERG current change (%, negative = inhibition) at 10uM” value is -8.83%.
Next, `N#CCCn1nc(-c2ccccc2)cc1Nc1ccccc1NC(=O)c1cccs1`: -13%; `CCOC(=O)c1cccc(NC(=O)c2ccccc2C)c1`: 0.56%.
As for `Fc1ccc(-c2nn(-c3ccccc3)cc2CNCc2ccccc2)cc1`, the figure is 1.75%.
